PubChem BioAssay AID651820 (National Center for Advancing Translational Sciences (NCATS), 2012)
Where “and” joins values, the source holds several entries; their conditions need not be identical. Identical values can stand only once. The campaign covered roughly 340,000 compounds. About 12,000 (3.5%) were called active. Inconclusive results, whose numbers are uncertain, are shown with a selection of clear calls. Calls come from the whole dose curve; as a rule, active = well fitted inhibition curve with a large enough effect; inconclusive = small, poorly fitted or top-dose-only effect, or another doubt; inactive = no such curve, though single readings can be large or run the other way. No potency is given beside an inconclusive call; the fits are too rough.

Experiment: qHTS Assay for Inhibitors of Hepatitis C Virus (HCV)
Details: Huh7.5.1 HCVcc-Cre (HCVcc is cell-culture hepatitis C virus) infection, luciferase reporter, 44 h; series mostly up to 41.8 µM
Procedure, shortened: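 Seed cells (1,000/well) for 4 h; treat with compound and infect with HCVcc-Cre, moi about 0.5. Incubate 44 h, then detect luciferase activity.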
Potency is the fitted concentration of half-maximal effect; tags give direction and shape of the fitted curve.

Compound | Potency
O=C(CSc1nc2ccccc2nc1N1CCCCC1)Nc1ccc(F)cc1 | inconclusive [inhibitor, partial curve]
CCO/C=C1\C(=O)N(c2ccccc2)C(=O)c2ccccc21 | inactive
CS(=O)(=O)N1CCC(C(=O)N2CCN(c3ccccc3F)CC2)CC1 | inactive
N#Cc1c(-c2ccc(F)cc2)ccnc1N1CCOCC1 | inactive
Cc1ccccc1Cn1ccc(NC(=O)CCSc2nc(-c3ccco3)cc(C(F)(F)F)n2)n1 | active: 22.4 µM and active: 3.16 µM
Cc1csc2ncc(C(=O)Nc3ccc4c(c3)OCCO4)c(=O)n12 | inactive
Cc1cc(=O)[nH]c(N/N=C/c2c(C)nn(-c3ccccc3Cl)c2Cl)n1 | inconclusive [inhibitor, single point]
CCOC(=O)N1CCN(C(=O)C2CCN(Cc3nc(-c4ccccc4C)oc3C)CC2)CC1 | inconclusive [inhibitor, single point]
COc1ccc(OC)c(Nc2cc(C)c3ccccc3n2)c1 | inactive
Cc1ccc(CN(C(=O)c2ccc(Cl)c([N+](=O)[O-])c2)C2CCS(=O)(=O)C2)o1 (configuration not stated) | inconclusive [inhibitor, partial curve]
Oc1ccccc1CNCCCN1CCOCC1 | inconclusive [inhibitor, single point]
Cc1cc(OCC(=O)Nc2ccc(N3CCN(C(=O)c4ccco4)CC3)cc2)cc(C)c1Cl | inconclusive [inhibitor, full curve]
Cc1ccc(C)c(S(=O)(=O)NCC(=O)Nc2ccc3c(c2)OCO3)c1 | inactive
COc1cc2c(cc1NC(=O)C(C)Sc1ccc(NC(C)=O)cc1)oc1ccccc12 (configuration not stated) | inconclusive [inhibitor, full curve]
COc1ccc(Br)cc1/C=C/C(=O)Nc1c(C)cccc1C | inconclusive [inhibitor, single point]
COc1ccc(C(=O)CN2CCN(c3cc(C)nc4ccccc34)CC2)cc1 | active: 10 µM
CCOc1ccc(-c2nc(N)ncc2-c2ccc(Cl)cc2)c(O)c1 | inconclusive [inhibitor, partial curve]
O=C(Nc1cc([N+](=O)[O-])ccc1C(=O)Nc1cccnc1)c1ccccc1 | inconclusive [inhibitor, single point]
COc1ccc(-c2c(C#N)c(SCC(=O)c3cc4ccccc4oc3=O)nc(C)c2C(=O)Nc2ccccc2)cc1 | inconclusive [inhibitor, partial curve]
CC(C)CCNC(=O)Cn1c(NCCC(C)C)nc2c1c(=O)n(C)c(=O)n2C | inconclusive [inhibitor, single point]
O=C(c1ccc(Cl)c(Cl)c1)N1CCN(Cc2ccc3c(c2)OCO3)CC1 | inconclusive [inhibitor, single point]
NC(=O)c1cc(NC(=O)CCCc2nc3ccccc3s2)cc(C(N)=O)c1 | inconclusive [inhibitor, single point]
CC(=O)c1cccc(NC(=O)Cc2coc3cc4c(cc23)CCC4)c1 | inconclusive [inhibitor, single point]
CCn1c(SCC(=O)Nc2ccc(C(=O)OC)cc2)nnc1-c1cccs1 | inconclusive [inhibitor, single point]

Compound | Potency
COc1ccc2cc(CO)c(Cl)nc2c1 | inactive
COc1ccccc1OCc1ccc(C(=O)Nc2ccncc2)o1 | inconclusive [inhibitor, single point]
O=C(COC(=O)c1ccco1)NCc1ccccc1Cl | inactive
COc1cc(/C=C2\C(=O)N(CCC#N)N=C2C)ccc1OCC(=O)Nc1ccccc1 | inactive
O=C(Nc1ccc(C(F)(F)F)cc1)c1ccc2nc[nH]c2c1 | inactive
COc1cccc(-c2nnc(SCc3ccc(C#N)cc3)n2Cc2ccco2)c1 | inconclusive [inhibitor, single point]
Cc1cccc2sc(NC(=O)C3CCN(C(=O)c4ccco4)CC3)nc12 | active: 11.2 µM
CC1CCCC(C)N1C(=O)c1ccccc1Nc1ccc(SC(F)F)cc1 (configuration not stated) | active: 2.82 µM
COc1ccc(CC(=O)Nc2c(C(=O)N3CCN(c4ccccc4)CC3)oc3ccccc23)cc1OC | inconclusive [inhibitor, single point]
CNC(=O)/C(C#N)=C1/SC(Cc2ccc(F)cc2)C(=O)N1c1ccccc1 (configuration not stated) | inactive
COc1cccc(NC(=O)NC2(C(F)(F)F)Oc3ccccc3O2)c1 | inconclusive [inhibitor, partial curve]
CC1(C)C2C/C(=N\O)C(C)(/[N+]([O-])=C/c3cccc([N+](=O)[O-])c3)CC21 (configuration not stated) | inactive
Clc1nc(-c2ccccc2)cc(-c2ccccc2)n1 | inconclusive [inhibitor, single point]
Cc1ccccc1NC(=O)c1cccc(S(C)(=O)=O)c1 | inactive
Cc1ccc(C#N)c(SCc2nnc(-c3ccc(Cl)cc3)o2)n1 | inactive
CC1CC(C)CN(S(=O)(=O)c2ccc(C(=O)N3CCCC3)cc2)C1 (configuration not stated) | inactive
C[C@@H]1CN([C@H](C)CO)C(=O)c2cc(NC(=O)Nc3ccc(C(F)(F)F)cc3)ccc2O[C@H]1CN(C)S(=O)(=O)c1cccs1 | inconclusive [inhibitor, single point]
O=C(O)/C(=C\c1cccs1)c1ccccc1 | inconclusive [inhibitor, single point]
CC1CN(C(=O)/C=C/c2ccc([N+](=O)[O-])s2)CC(C)O1 (configuration not stated) | inconclusive [inhibitor, single point]
Cc1ccnc(NCc2cccc3ccccc23)c1 | inconclusive [inhibitor, single point]
COc1ccc(-c2csc(Nc3ncccc3C)n2)cc1OC | active: 2.24 µM
CCN(Cc1cc2ccccc2[nH]c1=O)S(=O)(=O)c1ccccc1 | inconclusive [inhibitor, single point]
COc1ccc(C(C)(C)C)cc1S(=O)(=O)N1CCC(C(N)=O)CC1 | inconclusive [inhibitor, single point]
